Test results taken from publication PMC7975708.
Results are given in words; binding and its absence hold for the method and conditions named. For some assays here: Binding seen in cells or lysates may run through a third protein. Some binding calls cover weakened binding; strength is not graded here. For some assays here: Tags and fused reporters may be left off the sequences shown.

Chains of the proteins cited; added tags and fusions are not shown. Lines headed by an entry give the natural chain unless they say otherwise; changes in a name come on top. A line that says so, or that is headed by a name, gives the form on record, which may keep a tag or linker. Residues count along the entry.
UniProt O95994: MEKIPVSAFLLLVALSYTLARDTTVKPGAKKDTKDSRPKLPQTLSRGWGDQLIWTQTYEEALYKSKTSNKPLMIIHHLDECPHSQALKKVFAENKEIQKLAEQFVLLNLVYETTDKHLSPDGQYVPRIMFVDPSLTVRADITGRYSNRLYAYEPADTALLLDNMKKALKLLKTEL
Anterior gradient 2 (AGR2), endogenous in Huh7 cells (human (endogenous in Huh7)): residues 21-175 of O95994
AGR2-C81A from an expression plasmid in HepG2 cells (O95994, form named): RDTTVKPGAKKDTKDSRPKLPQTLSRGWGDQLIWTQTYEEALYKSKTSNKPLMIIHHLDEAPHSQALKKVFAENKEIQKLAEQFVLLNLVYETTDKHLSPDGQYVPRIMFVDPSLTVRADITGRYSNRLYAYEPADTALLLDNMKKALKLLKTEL

T1: fatty acid binding protein-1 (FABP1), endogenous in Huh7 and HepG2 cells (human (endogenous in Huh7 and HepG2)) (UniProt P07148)
T1 sequence: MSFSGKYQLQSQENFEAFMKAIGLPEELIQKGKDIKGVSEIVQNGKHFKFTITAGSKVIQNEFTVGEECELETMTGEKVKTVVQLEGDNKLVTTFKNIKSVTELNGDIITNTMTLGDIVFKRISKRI

T2: His-FABP1 protein (purified recombinant FABP1) (UniProt P07148)
T2 sequence: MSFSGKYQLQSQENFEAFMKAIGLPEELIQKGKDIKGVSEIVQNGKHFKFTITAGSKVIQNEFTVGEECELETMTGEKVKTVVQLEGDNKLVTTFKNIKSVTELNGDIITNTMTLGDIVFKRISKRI


Columns and labels:
[1] = target: T1, fatty acid binding protein-1 (FABP1), endogenous in Huh7 and HepG2 cells (human (endogenous in Huh7 and HepG2)); assay: co-IP; lysates of HepG2 cells treated with AGR2 or AGR2-C81A expression plasmids; primary antibody and agarose beads overnight at 4 °C; immunoblot
[2] = target: T2, His-FABP1 protein (purified recombinant FABP1); assay: pull-down; His pull-down: about 50 μg 6×His fusion protein held on Co-Sepharose beads, 4 °C 2 h, 20 mM Tris pH 8.0, 150 mM NaCl; washed with 10 mM imidazole, eluted with 250 mM imidazole; Coomassie staining and western blotting; both purified
[3] = target: T2, His-FABP1 protein (purified recombinant FABP1); assay: pull-down; His pull-down as a3, in the presence of the reducing agent β-mercaptoethanol (β-ME); both purified
[4] = target: Anterior gradient 2 (AGR2), endogenous in Huh7 cells (human (endogenous in Huh7)) (UniProt O95994); assay: co-IP; Huh7 cell lysates (1.2 mg protein), endogenous proteins; precleared with protein A/G Plus-Agarose and non-specific IgG, primary antibody and agarose beads overnight at 4 °C; immunoblot

Row | binding [2] | Molecule | further results
1 | binds | AGR2 truncation mutant containing PDI and KTEL motifs (amino acid residues 81-175) (from UniProt O95994 81-175) (domain or fragment) | 
2 | no binding | recombinant AGR2-C81A mutant (His pull-down) (from UniProt O95994 1-175) | 

The remaining lines, values behind:

Row | Molecule | binding [2] | further results
3 | AGR2 from an expression plasmid in HepG2 cells (from UniProt O95994 21-175) |  | binding [1]: binds
4 | AGR2 mutant lacking the PDI motif (amino acid residues 101-175) (from UniProt O95994 101-175) (domain or fragment) | no binding | 
5 | AGR2-C81A from an expression plasmid in HepG2 cells (from UniProt O95994 21-175) |  | binding [1]: no binding
6 | GST-AGR2 fusion protein (recombinant full-length AGR2) (from UniProt O95994 1-175) | binds | binding [3]: no binding (condition: with β-mercaptoethanol (β-ME))
7 | fatty acid binding protein-1 (FABP1), endogenous in Huh7 and HepG2 cells (protein, UniProt P07148 1-127) MSFSGKYQLQSQENFEAFMKAIGLPEELIQKGKDIKGVSEIVQNGKHFKFTITAGSKVIQNEFTVGEECELETMTGEKVKTVVQLEGDNKLVTTFKNIKSVTELNGDIITNTMTLGDIVFKRISKRI |  | binding [4]: binds
